# The other results are listed elsewhere or left out.
# Legend:
# Test in all cases: glycan array binding signal (z-score within array); higher = stronger binding
# Conditions in all cases: glycan notation: IUPAC condensed, linker removed
# [1] = target: Fuc(a1-3)[Gal3S(b1-4)]GlcNAc
# Method in brief: (§1)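 Columns mapping to the same glycan were averaged after glycan names were converted to IUPAC-condensed notation. The data come from 3228 arrays in the Consortium for Functional Glycomics database, limited to those with an available protein sequence. Binding is reported as a within-array Z-score averaged across arrays of one protein sequence and across linkers.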
# [2] = target: Fuc(a1-3)[Gal3S(b1-4)]GlcNAc6S
# Method in brief: as §1
# [3] = target: Fuc(a1-3)[GalNAc(b1-4)]GlcNAc
# Method in brief: as §1
# [4] = target: Fuc(a1-3)[GalNAc(b1-4)]GlcNAc6S
# Method in brief: as §1
# [5] = target: Fuc(a1-4)GlcNAc
# Method in brief: as §1
# [6] = target: Fuc(b1-3)GlcNAc
# Method in brief: as §1
# [7] = target: Gal(a1-2)Gal
# Method in brief: as §1
# [8] = target: Gal(a1-3)Gal
# Method in brief: as §1
# [9] = target: Gal(a1-3)Gal(b1-3)GlcNAc
# Method in brief: as §1
# [10] = target: Gal(a1-3)Gal(b1-3)GlcNAc(b1-2)Man
# Method in brief: as §1
# [11] = target: Gal(a1-3)Gal(b1-3)GlcNAc(b1-2)Man(a1-3)[Gal(a1-3)Gal(b1-3)GlcNAc(b1-2)Man(a1-6)]Man(b1-4)GlcNAc(b1-4)GlcNAc
# Method in brief: as §1
# [12] = target: Gal(a1-3)Gal(b1-3)GlcNAc(b1-3)GalNAc
# Method in brief: as §1
# [13] = target: Gal(a1-3)Gal(b1-3)GlcNAc(b1-6)GalNAc
# Method in brief: as §1
# [14] = target: Gal(a1-3)Gal(b1-3)[Fuc(a1-4)]GlcNAc(b1-2)Man(a1-3)[Gal(a1-3)Gal(b1-3)[Fuc(a1-4)]GlcNAc(b1-2)Man(a1-6)]Man(b1-4)GlcNAc(b1-4)GlcNAc
# Method in brief: as §1
# [15] = target: Gal(a1-3)Gal(b1-4)Glc
# Method in brief: as §1
# [16] = target: Gal(a1-3)Gal(b1-4)GlcNAc
# Method in brief: as §1
# [17] = target: Gal(a1-3)Gal(b1-4)GlcNAc(b1-2)Man
# Method in brief: as §1
# [18] = target: Gal(a1-3)Gal(b1-4)GlcNAc(b1-2)Man(a1-3)[Gal(a1-3)Gal(b1-4)GlcNAc(b1-2)Man(a1-6)]Man(b1-4)GlcNAc(b1-4)GlcNAc
# Method in brief: as §1
# [19] = target: Gal(a1-3)Gal(b1-4)GlcNAc(b1-3)GalNAc
# Method in brief: as §1
# [20] = target: Gal(a1-3)Gal(b1-4)GlcNAc(b1-6)GalNAc
# Method in brief: as §1
# [21] = target: Gal(a1-3)Gal(b1-4)[Fuc(a1-3)]GlcNAc
# Method in brief: as §1
# [22] = target: Gal(a1-3)Gal(b1-4)[Fuc(a1-3)]GlcNAc(b1-2)Man(a1-3)[Gal(a1-3)Gal(b1-4)[Fuc(a1-3)]GlcNAc(b1-2)Man(a1-6)]Man(b1-4)GlcNAc(b1-4)GlcNAc
# Method in brief: as §1
# [23] = target: Gal(a1-3)GalNAc
# Method in brief: as §1
# [24] = target: Gal(a1-3)[Gal(a1-4)]Gal(b1-4)GlcNAc
# Method in brief: as §1
# [25] = target: Gal(a1-4)Gal(b1-3)GlcNAc(b1-2)Man(a1-3)[Gal(a1-4)Gal(b1-3)GlcNAc(b1-2)Man(a1-6)]Man(b1-4)GlcNAc(b1-4)GlcNAc
# Method in brief: as §1
# [26] = target: Gal(a1-4)Gal(b1-4)Glc
# Method in brief: as §1
# [27] = target: Gal(a1-4)Gal(b1-4)GlcNAc
# Method in brief: as §1
# [28] = target: Gal(a1-4)Gal(b1-4)GlcNAc(b1-2)Man(a1-3)[Gal(a1-4)Gal(b1-4)GlcNAc(b1-2)Man(a1-6)]Man(b1-4)GlcNAc(b1-4)GlcNAc
# Method in brief: as §1
# [29] = target: Gal(a1-4)Gal(b1-4)GlcNAc(b1-3)Gal(b1-4)Glc
# Method in brief: as §1
# [30] = target: Gal(a1-4)GlcNAc
# Method in brief: as §1
# [31] = target: Gal(a1-6)Glc
# Method in brief: as §1
# [32] = target: Gal(b1-2)Gal
# Method in brief: as §1
# [33] = target: Gal(b1-3)Gal
# Method in brief: as §1
# [34] = target: Gal(b1-3)Gal(b1-4)GlcNAc
# Method in brief: as §1
# [35] = target: Gal(b1-3)GalNAc
# Method in brief: as §1
# [36] = target: Gal(b1-3)GalNAc(a1-3)[Fuc(a1-2)]Gal(b1-4)Glc
# Method in brief: as §1
# [37] = target: Gal(b1-3)GalNAc(a1-3)[Fuc(a1-2)]Gal(b1-4)GlcNAc
# Method in brief: as §1
binder,measurement,setting,value
DC-ASGPR-short (Homo sapiens) (protein) MTRTYENFQYLENKVKVQGFKNGPLPLQSLLQRLRSGPCHLLLSLGLGLLLLVIICVVGFQNSKFQRDLVTLRTDFSNFTSNTVAEIQALTSQGSSLEETIASLKAEVEGFKQERQAVHSEMLLRVQQLVQDLKKLTCQVATLNNNASTEGTCCPVNWVEHQDSCYWFSHSGMSWAEAEKYCQLKNAHLVVINSREEQNFVQKYLGSAYTWMGLSDPEGAWKWVDGTDYATGFQNWKPGQPDDWQGHGLGGGEDCAHFHPDGRWNDDVCQRPYHWVCEAGLGQTSQESH,glycan array binding signal (z-score),[1],-0.261
same,glycan array binding signal (z-score),[2],-0.284
same,glycan array binding signal (z-score),[3],3.04
same,glycan array binding signal (z-score),[4],1.81
same,glycan array binding signal (z-score),[5],-0.228
same,glycan array binding signal (z-score),[6],-0.273
same,glycan array binding signal (z-score),[7],-0.275
same,glycan array binding signal (z-score),[8],-0.251
same,glycan array binding signal (z-score),[9],-0.264
same,glycan array binding signal (z-score),[10],-0.269
same,glycan array binding signal (z-score),[11],-0.247
same,glycan array binding signal (z-score),[12],-0.248
same,glycan array binding signal (z-score),[13],2.47
same,glycan array binding signal (z-score),[14],-0.166
same,glycan array binding signal (z-score),[15],-0.271
same,glycan array binding signal (z-score),[16],-0.274
same,glycan array binding signal (z-score),[17],-0.341
same,glycan array binding signal (z-score),[18],-0.281
same,glycan array binding signal (z-score),[19],-0.259
same,glycan array binding signal (z-score),[20],1.44
same,glycan array binding signal (z-score),[21],-0.27
same,glycan array binding signal (z-score),[22],-0.258
same,glycan array binding signal (z-score),[23],-0.136
same,glycan array binding signal (z-score),[24],-0.269
same,glycan array binding signal (z-score),[25],-0.254
same,glycan array binding signal (z-score),[26],-0.18
same,glycan array binding signal (z-score),[27],-0.254
same,glycan array binding signal (z-score),[28],-0.275
same,glycan array binding signal (z-score),[29],-0.283
same,glycan array binding signal (z-score),[30],-0.155
same,glycan array binding signal (z-score),[31],-0.009
same,glycan array binding signal (z-score),[32],-0.296
same,glycan array binding signal (z-score),[33],-0.274
same,glycan array binding signal (z-score),[34],-0.277
same,glycan array binding signal (z-score),[35],-0.272
same,glycan array binding signal (z-score),[36],-0.27
same,glycan array binding signal (z-score),[37],-0.273

# From the supplement of paper PMC8728848
